Experimental data reported in PubChem BioAssay AID504332 (National Center for Advancing Translational Sciences (NCATS), 2011).
The campaign covered roughly 350,000 compounds. About 31,000 (8.9%) were called active. This list was built around the results that the source calls inconclusive (neither active nor inactive); the mix of calls is not that of the screen. Calls come from the whole dose curve; as a rule, active = well fitted inhibition curve with a large enough effect; inconclusive = small, poorly fitted or top-dose-only effect; inactive = no such curve, though single readings can be large or run the other way. A potency beside an inconclusive call is a rough fit, not a confirmed value.

Target: Histone-lysine N-methyltransferase EHMT2 (Homo sapiens) (UniProt Q96KQ7)
Sequence of UniProt Q96KQ7 (Q96KQ7 whole entry, looked up): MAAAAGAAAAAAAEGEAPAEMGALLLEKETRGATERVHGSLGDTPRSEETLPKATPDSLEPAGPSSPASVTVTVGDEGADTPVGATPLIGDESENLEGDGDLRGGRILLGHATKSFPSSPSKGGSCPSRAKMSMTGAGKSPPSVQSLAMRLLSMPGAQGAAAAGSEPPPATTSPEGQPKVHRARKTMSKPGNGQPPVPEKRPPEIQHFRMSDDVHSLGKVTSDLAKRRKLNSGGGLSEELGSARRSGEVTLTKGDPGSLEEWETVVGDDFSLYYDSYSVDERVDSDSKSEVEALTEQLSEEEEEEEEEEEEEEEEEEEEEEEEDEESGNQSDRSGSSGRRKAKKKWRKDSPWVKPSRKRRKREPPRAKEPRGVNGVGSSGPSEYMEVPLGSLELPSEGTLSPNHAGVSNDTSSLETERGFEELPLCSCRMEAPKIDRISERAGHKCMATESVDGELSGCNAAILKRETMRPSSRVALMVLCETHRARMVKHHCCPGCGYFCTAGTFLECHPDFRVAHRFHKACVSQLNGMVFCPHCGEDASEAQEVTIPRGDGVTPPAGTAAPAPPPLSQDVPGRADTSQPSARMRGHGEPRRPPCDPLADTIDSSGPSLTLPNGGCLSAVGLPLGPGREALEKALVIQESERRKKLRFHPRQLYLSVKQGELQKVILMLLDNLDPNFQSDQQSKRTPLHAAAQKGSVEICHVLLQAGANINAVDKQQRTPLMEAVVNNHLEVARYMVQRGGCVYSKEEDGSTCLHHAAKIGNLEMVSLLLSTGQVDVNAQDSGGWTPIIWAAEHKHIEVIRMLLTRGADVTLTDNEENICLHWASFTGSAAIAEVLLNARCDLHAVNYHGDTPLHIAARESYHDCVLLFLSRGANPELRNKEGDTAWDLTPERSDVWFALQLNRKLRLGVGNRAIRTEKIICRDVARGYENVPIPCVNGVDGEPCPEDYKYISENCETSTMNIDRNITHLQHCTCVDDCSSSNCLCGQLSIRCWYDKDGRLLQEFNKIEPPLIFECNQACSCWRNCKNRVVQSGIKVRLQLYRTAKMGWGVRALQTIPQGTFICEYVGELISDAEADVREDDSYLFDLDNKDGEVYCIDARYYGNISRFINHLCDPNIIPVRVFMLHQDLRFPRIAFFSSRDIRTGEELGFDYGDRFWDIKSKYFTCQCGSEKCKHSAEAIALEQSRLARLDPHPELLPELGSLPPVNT
Experiment: qHTS Assay for Inhibitors of Histone Lysine Methyltransferase G9a; note: nearly all actives have a fitted effect of over 75% in size
Conditions: G9a H3K9 monomethylation, AlphaScreen, 2 h; activity, negative = inhibition: at 59 µM (top of the series) unless noted
Procedure, shortened: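 AlphaScreen detection with an anti-monomethyl H3K9 antibody quantified product after a 2 h room-temperature reaction containing 500 nM biotinylated H3K9 peptide, 20 µM SAM and 20 nM enzyme, which had been preincubated 15 min with compound.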
% is set by controls: 0 for no effect and ±100 for the full control effect; potency is the fitted concentration of half-maximal effect; tags give direction and shape of the fitted curve.

SMILES	activity, negative = inhibition	Potency
Cc1ccccc1C(=O)NCC(c1ccco1)N1CCc2ccccc21 (stereo not given)	inactive: 12% [at 2.33 µM]	–
CCc1ccc(NC(=O)C(=O)NCC(c2cccnc2)N2CCN(c3ccc(F)cc3)CC2)cc1 (stereo not given)	–	inconclusive: 39.8 µM [inhibitor, single point]
CCNC(=S)Nc1ccc(Cl)cc1Cl	–	inactive
COc1ccc(CCC(=O)N2CCN(S(=O)(=O)c3ccc(OC)cc3)CC2)cc1	–	inconclusive: 1 µM [inhibitor, partial curve, poor fit]
COC(=O)c1ccccc1NC(=O)N1CCN(Cc2ccco2)CC1	–	inactive
O=C(COC(=O)c1cccnc1)c1ccc(Cl)c(Cl)c1	–	inconclusive: 39.8 µM [inhibitor, single point]
CCN(CC)C(=O)CSC1=C(C#N)C(c2ccco2)C(C(=O)OCCOC)=C(C)N1 (stereo not given)	–	active: 25.1 µM
CCn1c(=O)c2c(nc3n2CC(C)CN3CCc2ccccc2)n(C)c1=O (stereo not given)	–	inconclusive: 89.1 µM [inhibitor, partial curve, poor fit]
CN(C)CCNC(=O)C12CC3(C)CC(C)(CC(C)(C3)C1)C2	–	inconclusive: 89.1 µM [inhibitor, partial curve, poor fit]
O=C(NCCN1CCCC1)c1ccc2c(c1)N(Cc1ccccc1)C(=O)c1ccccc1S2(=O)=O	–	inconclusive: 79.4 µM [inhibitor, single point]
Cc1ccc(NC(=O)CSc2nc(=O)n(CCN3CCOCC3)c3c2CCC3)c(C)c1	–	inconclusive: 6.31 µM [inhibitor, single point]
CCOc1cc(C(=O)Nc2ccccc2F)cc(Br)c1OCC	–	inactive
COC(=O)C/C=C/[C@@H](C)[C@@H](/C=N/OC[C@H]1O[C@H](c2ccccc2)C=C[C@@H]1Oc1ccc(OC)cc1)NS(=O)(=O)c1ccc(C)cc1	–	inconclusive: 79.4 µM [inhibitor, single point]
O=C(CSc1nnc(-c2cc3ccccc3cc2O)n1Cc1ccco1)N1CCc2ccccc2C1	–	inconclusive: 7.94 µM [inhibitor, partial curve, poor fit]
COC(=O)CCC(=O)OC1(C)C(=O)C2=CN(CCCCO)C(c3ccc(OC)cc3)=CC2=C(Br)C1=O (stereo not given)	–	active: 35.5 µM
O=C(O)c1ccc(-n2cccn2)c([N+](=O)[O-])c1	–	inconclusive: 79.4 µM [inhibitor, single point]
O=C(/C=C/c1ccc(O)c(O)c1)O[C@@H]1C[C@](O)(C(=O)O)C[C@@H](O)[C@H]1O	–	active: 12.6 µM
NC1=NC2(CCCCC2)n2c(nc3ccccc32)N1	–	inconclusive: 0.891 µM [inhibitor, partial curve, poor fit]

SMILES	activity, negative = inhibition	Potency
N#CC1=C2SCC(O)(c3ccccc3)N2C(=O)CC1c1ccccc1F (stereo not given)	–	inconclusive: 79.4 µM [inhibitor, partial curve, poor fit]
O=c1oc2ccccc2cc1-c1cn(-c2ccccc2)c(=S)[nH]1	–	active: 1.41 µM
CCN(CC)c1ccc(/C=N/NC(=O)C(O)c2ccccc2)cc1 (stereo not given)	–	inconclusive: 50.1 µM [inhibitor, partial curve]
CCOc1ccc(Cc2c(C)[nH]c3ccc(C(=O)O)cc3c2=S)cc1	–	active: 12.6 µM
CCOc1ccccc1Nc1sc(C(=O)c2ccccc2)c(N)c1C(=O)Nc1ccccc1	–	active: 11.2 µM
COc1ccc(Nc2cccc3ccccc23)cc1	inactive: 22.6% [at 2.33 µM]	–
CCn1ncc(NC(=S)NCCc2ccc(OC)c(OC)c2)c1C(N)=O	–	inconclusive: 89.1 µM [inhibitor, single point]
Cc1occc1-c1nnc(SCCCC(=O)c2ccc(F)cc2)n1C	–	active: 50.1 µM
CCOc1cc(C(=O)Nc2ccc(N3CCN(C(C)=O)CC3)cc2)cc(OCC)c1OCC	–	inconclusive: 89.1 µM [inhibitor, single point]
CC(C)(C)C(=O)Cn1c(=O)n(-c2ccc(F)cc2F)c(=O)c2sccc21	–	inactive
Cc1cc(SCNC(=O)c2ccccc2)ncn1	–	inconclusive: 8.91 µM [inhibitor, single point]
Cc1cc(C)cc(OCC(=O)OC(C)C(=O)Nc2ccc(Cl)cn2)c1 (stereo not given)	–	inconclusive: 89.1 µM [inhibitor, partial curve, poor fit]
CC(=O)Nc1cc(-c2ccccc2)ccc1O	–	active: 28.2 µM
CC1CCN(C(=S)NC(=O)c2ccccc2Br)CC1	–	inconclusive: 7.94 µM [inhibitor, partial curve, poor fit]
CCOc1ccc(CN2CCN(C(=O)c3cccc4ccccc34)CC2)cc1	–	active: 14.1 µM
CC(=O)c1cc(-c2ccccc2)n(CCC(=O)NCc2ccc(C)cc2)c1C	–	inactive
CCNc1ncc2nc(-c3cccs3)c(=O)n(CCc3ccccc3)c2n1	inactive: 11.6% [at 0.501 µM]	–
